Test system: MLKL phosphorylation, HT29-L23 human colorectal adenocarcinoma cells
Experiment: cells
Conditions: read-out: pMLKL HCS Cell Assay (IC50, uM)

| Compound | IC50 [µM] |
| --- | --- |
| Cc1nc(C)c(-c2cc(C(F)(F)F)c3c(N)ncnn23)cc1C(=O)N[C@@H]1CN(C(=O)c2ccncc2F)C[C@@H]1F [Example 1192, 5-[4-amino-5-(trifluoromethyl)pyrrolo[2,1-f][1,2,4]triazin-7-yl]-N-[(3R,4S)-4-fluoro-1-(3-fluoropyridine-4-carbonyl)pyrrolidin-3-yl]-2,6-dimethylpyridine-3-carboxamide] | 0.098 |
| COc1ncc(-c2cc(CN3[C@@H]4CC[C@H]3CC(F)(F)C4)c3c(N)ncnn23)cc1C(=O)N[C@@H]1CN(C(=O)C2CC(F)(F)C2)C[C@@H]1F [Example 1612, 5-(4-amino-5-{[(1R,5S)-3,3-difluoro-8-azabicyclo[3.2.1]octan-8-yl]methyl}pyrrolo[2,1-f][1,2,4]triazin-7-yl)-N-[(3R,4S)-1-(3,3-difluorocyclobutanecarbonyl)-4-fluoropyrrolidin-3-yl]-2-methoxypyridine-3-carboxamide] | 0.0084 |
| [2H]C([2H])([2H])Oc1ncc(-c2cc(C(F)(F)F)c3c(N)ncnn23)cc1C(=O)NC1CN(C(=O)C2CC2(F)F)C[C@@H]1F (stereo partly drawn) [Example 377, 5-[4-amino-5-(trifluoromethyl)pyrrolo [2,1-f][1,2,4]triazin-7-yl]-N-[(3R,4S)-1-(2,2-difluorocyclopropanecarbonyl)-4-fluoropyrrolidin-3-yl]-2-(Deutro) methoxypyridine-3-carboxamide] | 0.0055 |
| Nc1ncnn2c(-c3ccc(Cl)c(C(=O)N[C@@H]4CN(C(=O)c5ncccc5F)C[C@@H]4F)c3)cc(C(F)(F)F)c12 [Example 949, 5-[4-amino-5-(trifluoromethyl)pyrrolo[2,1-f][1,2,4]triazin-7-yl]-2-chloro-N-[(3R,4S)-4-fluoro-1-(3-fluoropyridine-2-carbonyl)pyrrolidin-3-yl]benzamide] | 0.063 |
| COc1ncc(-c2cc(CN(C)C)c3c(N)ncnn23)cc1C(=O)N[C@@H]1CN(C(=O)C2CC(F)(F)C2)C[C@@H]1F [Example 485, 5-{4-amino-5-[(dimethylamino)methyl]pyrrolo[2,1-f][1,2,4]triazin-7-yl}-N-[(3R,4S)-1-(3,3-difluorocyclobutanecarbonyl)-4-fluoropyrrolidin-3-yl]-2-methoxypyridine-3-carboxamide] | 0.0029 |
| COc1cc(F)c(-c2cc(CN3CCC(C(F)(F)F)CC3)c3c(N)ncnn23)cc1C(=O)N[C@@H]1CN(C(=O)C2CC(F)(F)C2)C[C@@H]1F [Example 1640, 5-(4-amino-5-{[4-(trifluoromethyl)piperidin-1-yl]methyl}pyrrolo[2,1-f][1,2,4]triazin-7-yl)-N-[(3R,4S)-1-(3,3-difluorocyclobutanecarbonyl)-4-fluoropyrrolidin-3-yl]-4-fluoro-2-methoxybenzamide] | 0.0038 |
| COc1ncc(-c2cc(C(F)(F)F)c3c(N)ncnn23)cc1C(=O)N[C@@H]1CN(C(=O)C2CCCOC2)C[C@@H]1F (stereo partly drawn) [Example 327, 5-[4-amino-5-(trifluoromethyl)pyrrolo[2,1-f][1,2,4]triazin-7-yl]-N-[(3R,4S)-4-fluoro-1-(oxane-3-carbonyl)pyrrolidin-3-yl]-2-methoxypyridine-3-carboxamide] | 0.12 |
| COc1ncc(-c2cc(CN3CCC(F)(F)CC3)c3c(N)ncnn23)cc1C(=O)N[C@@H]1CN(C(=O)OC(C)C2CC2)C[C@@H]1F (stereo partly drawn) [Example 1513, 1-cyclopropylethyl (3R,4S)-3-(5-{4-amino-5-[(4,4-difluoropiperidin-1-yl)methyl]pyrrolo[2,1-f][1,2,4]triazin-7-yl}-2-methoxypyridine-3-amido)-4-fluoropyrrolidine-1-carboxylate] | 0.0029 |
| COc1ncc(-c2cc(C(F)(F)F)c3c(N)ncnn23)cc1C(=O)NCCC(=O)c1ccc(F)cc1 [Example 149, 5-[4-amino-5-(trifluoromethyl)pyrrolo[2,1-f][1,2,4]triazin-7-yl]-N-[3-(4-fluorophenyl)-3-oxopropyl]-2-methoxypyridine-3-carboxamide] | 0.026 |
| COc1ncc(-c2cc(C(F)(F)F)c3c(N)ncnn23)cc1C(=O)N[C@@H]1CN(C(=O)[C@@H](O)C(C)(C)C)C[C@@H]1F [Example 323, 5-[4-amino-5-(trifluoromethyl)pyrrolo[2,1-f][1,2,4]triazin-7-yl]-N-[(3R,4S)-4-fluoro-1-[(2S)-2-hydroxy-3,3-dimethylbutanoyl]pyrrolidin-3-yl]-2-methoxypyridine-3-carboxamide] | 0.086 |
| Cc1cc(C)c(-c2cc(C(F)(F)F)c3c(N)ncnn23)cc1C(=O)N1CCC[C@H](Cc2ccc(F)cc2)C1 [Example 541, 7-{5-[(3R)-3-[(4-fluorophenyl)methyl]piperidine-1-carbonyl]-2,4-dimethylphenyl}-5-(trifluoromethyl)pyrrolo[2,1-f][1,2,4]triazin-4-amine] | 0.404 |
| COc1ncc(-c2cc(CN3CCCC(=O)N3)c3c(N)ncnn23)cc1C(=O)N[C@@H]1CN(C(=O)C2CC(F)(F)C2)C[C@@H]1F [Example 1715, 5-(4-amino-5-((3-oxotetrahydropyridazin-1(2H)-yl)methyl)pyrrolo[2,1-f][1,2,4]triazin-7-yl)-N-((3R,4S)-1-(3,3-difluorocyclobutane-1-carbonyl)-4-fluoropyrrolidin-3-yl)-2-methoxynicotinamide] | 0.038 |
| COc1cc(C(=O)N[C@@H]2CN(C(=O)C3CC(F)C3)C[C@@H]2F)cc(-c2cc(C(F)(F)F)c3c(N)ncnn23)c1 (stereo partly drawn) [Example 574, 3-[4-amino-5-(trifluoromethyl)pyrrolo[2,1-f][1,2,4]triazin-7-yl]-N-[(3R,4S)-4-fluoro-1-(3-fluorocyclobutanecarbonyl)pyrrolidin-3-yl]-5-methoxybenzamide] | 0.022 |
| Cc1ncc(-c2cc(C(F)(F)F)c3c(N)ncnn23)cc1C(=O)N[C@@H]1CN(C(=O)C2CCCC2)C[C@@H]1C [Example 175, 5-[4-amino-5-(trifluoromethyl)pyrrolo[2,1-f][1,2,4]triazin-7-yl]-N-[(3S,4S)-1-cyclopentanecarbonyl-4-methylpyrrolidin-3-yl]-2-methylpyridine-3-carboxamide] | 0.029 |
| CC(C)(F)C(=O)N1C[C@H](F)[C@H](NC(=O)c2cc(-c3cc(CN4CCC(C(F)(F)F)CC4)c4c(N)ncnn34)ccc2Cl)C1 [Example 1152, 5-(4-amino-5-{[4-(trifluoromethyl)piperidin-1-yl]methyl}pyrrolo[2,1-f][1,2,4]triazin-7-yl)-2-chloro-N-[(3R,4S)-4-fluoro-1-(2-fluoro-2-methylpropanoyl)pyrrolidin-3-yl]benzamide] | 0.001 |
| COc1ccc(-c2cc(C(F)(F)F)c3c(N)ncnn23)cc1C(=O)N[C@@H]1CN(C(=O)CC(F)(F)F)C[C@@H]1F [Example 1121, 5-[4-amino-5-(trifluoromethyl)pyrrolo[2,1-f][1,2,4]triazin-7-yl]-N-[(3R,4S)-4-fluoro-1-(3,3,3-trifluoropropanoyl)pyrrolidin-3-yl]-2-methoxybenzamide] | 0.039 |
| CC(C)(F)C(=O)N1C[C@H](F)[C@H](NC(=O)c2cc(-c3cc(C(F)(F)F)c4c(N)ncnn34)cc(F)c2CF)C1 [Example 613, 5-[4-amino-5-(trifluoromethyl)pyrrolo[2,1-f][1,2,4]triazin-7-yl]-3-fluoro-N-[(3R,4S)-4-fluoro-1-(2-fluoro-2-methylpropanoyl)pyrrolidin-3-yl]-2-(fluoromethyl)benzamide] | 0.0027 |
| COc1ncc(-c2cc(C(F)(F)F)c3c(N)ncnn23)cc1C(=O)N[C@@H]1CN(C(=O)CC(F)(F)F)C[C@@H]1F [Example 334, 5-[4-amino-5-(trifluoromethyl)pyrrolo[2,1-f][1,2,4]triazin-7-yl]-N-[(3R,4S)-4-fluoro-1-(3,3,3-trifluoropropanoyl)pyrrolidin-3-yl]-2-methoxypyridine-3-carboxamide] | 0.023 |
| CC(C)(O)C(=O)N1C[C@H](F)[C@H](NC(=O)c2cc(-c3cc(C(F)(F)F)c4c(N)ncnn34)c(F)cc2F)C1 [Example 776, 5-[4-amino-5-(trifluoromethyl)pyrrolo[2,1-f][1,2,4]triazin-7-yl]-2,4-difluoro-N-[(3R,4S)-4-fluoro-1-(2-hydroxy-2-methylpropanoyl)pyrrolidin-3-yl]benzamide] | 0.143 |
| COc1ccc(-c2cc(C(F)(F)F)c3c(N)ncnn23)cc1C(=O)NCc1ccccc1Oc1ccccc1 [Example 162, 5-[4-amino-5-(trifluoromethyl)pyrrolo[2,1-f][1,2,4]triazin-7-yl]-2-methoxy-N-[(2-phenoxyphenyl)methyl]benzamide] | 0.351 |
| COc1ncc(-c2cc(C(F)(F)F)c3c(N)ncnn23)cc1C(=O)NC1CN(C(C)C2CCC(F)(F)C2)C[C@@H]1F (stereo partly shown) [Example 1382] | 0.026 |
| Nc1ncnn2c(-c3ccc(Cl)c(C(=O)N[C@@H]4CN(C(=O)c5ccccc5)C[C@@H]4F)c3)cc(C(F)(F)F)c12 [Example 954, 5-[4-amino-5-(trifluoromethyl)pyrrolo[2,1-f][1,2,4]triazin-7-yl]-N-[(3R,4S)-1-benzoyl-4-fluoropyrrolidin-3-yl]-2-chlorobenzamide] | 0.02 |
| Cc1ccnc(C(=O)N2C[C@H](F)[C@H](NC(=O)c3cc(-c4cc(C(F)(F)F)c5c(N)ncnn45)ccc3C)C2)c1 [Example 1023, 5-[4-amino-5-(trifluoromethyl)pyrrolo[2,1-f][1,2,4]triazin-7-yl]-N-[(3R,4S)-4-fluoro-1-(4-methylpyridine-2-carbonyl)pyrrolidin-3-yl]-2-methylbenzamide] | 0.015 |
| COc1ncc(-c2cc(C(F)(F)F)c3c(N)ncnn23)cc1C(=O)NC1CN(Cc2ccccc2C(F)(F)F)CC1F (racemic) [Example 232, 5-[4-amino-5-(trifluoromethyl)pyrrolo[2,1-f][1,2,4]triazin-7-yl]-N-(4-fluoro-1-{[2-(trifluoromethyl)phenyl]methyl}pyrrolidin-3-yl)-2-methoxypyridine-3-carboxamide] | 0.0062 |
| CCc1c(F)cc(-c2cc(C(F)(F)F)c3c(N)ncnn23)cc1C(=O)N[C@@H]1CN(C(=O)CC(F)(F)F)C[C@@H]1F [Example 648, 5-[4-amino-5-(trifluoromethyl)pyrrolo[2,1-f][1,2,4]triazin-7-yl]-2-ethyl-3-fluoro-N-[(3R,4S)-4-fluoro-1-(3,3,3-trifluoropropanoyl)pyrrolidin-3-yl]benzamide] | 0.021 |
